Experimental data: PubChem BioAssay AID485344 (National Center for Advancing Translational Sciences (NCATS), 2010)
Among all 340,000 compounds or so, about 6,900 (2%) were called active. No stated cut-off is given here; in the data, active means inhibition above about 30%; inactive means below that, where a call was filed. This is a selection; strong and weak results do not stand in their true shares. Entries without a call were filed so in the source.

Target: D(2) dopamine receptor (Homo sapiens) (UniProt P14416)
Chain of UniProt P14416 (P14416 whole entry, looked up): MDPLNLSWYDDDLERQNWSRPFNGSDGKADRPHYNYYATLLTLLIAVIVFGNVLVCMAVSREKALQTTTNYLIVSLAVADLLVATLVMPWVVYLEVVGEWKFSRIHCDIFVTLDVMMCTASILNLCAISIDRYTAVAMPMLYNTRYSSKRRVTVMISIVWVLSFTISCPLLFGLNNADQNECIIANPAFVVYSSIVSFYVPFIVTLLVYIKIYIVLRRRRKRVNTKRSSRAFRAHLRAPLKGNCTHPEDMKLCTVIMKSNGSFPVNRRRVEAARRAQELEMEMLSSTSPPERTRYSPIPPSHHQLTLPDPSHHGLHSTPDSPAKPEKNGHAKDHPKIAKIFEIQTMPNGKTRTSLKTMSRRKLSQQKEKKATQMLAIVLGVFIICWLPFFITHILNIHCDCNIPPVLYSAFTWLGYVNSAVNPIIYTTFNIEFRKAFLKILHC
Assay: HTS Assay for Allosteric Antagonists of the Human D2 Dopamine Receptor: Primary Screen for Antagonists; further: 0% is about no effect
Conditions: HEK293 TREx D2 cells, calcium flux, dopamine EC80; at 10 µM; stronger effect = higher value
Outline: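 Calcium mobilization kinetics were recorded at 1 s intervals in tetracycline-induced HEK293 T-REx D2 cells, first for 180 s after compound addition and then 180 s after EC80 dopamine.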

SMILES	inhibition
COc1ccccc1NC(=O)CSc1nnc(-c2ccccc2C)o1	-11.5%
COc1ccccc1CNS(=O)(=O)c1c(C(=O)N2CCCCC2)c(C)n(C)c1C	active: 30.1%
Cc1ccc2c(=O)cc(C(=O)Nc3sc4c(c3C(=O)NCc3ccco3)CCC4)oc2c1	0.404%
CC1=C(C(=O)OCc2ccc(C)cc2)C(c2ccccc2F)CC(=O)N1 (stereo not drawn)	13.8%
O=C(c1ccc(CN2CCc3ccccc3C2)cc1)N1CCCCC1	active: 34.9%
CCc1ccc(CNC(=O)c2c3c(nc4ccccc24)C(=O)N(C2CCCCC2)C3)cc1	17%
Cc1ccccc1OCCCCn1c(-c2ccc(Cl)cc2)nc2ccccc2c1=O	5.46%
CCOC(=O)c1c(C)[nH]c(C)c1S(=O)(=O)N(C)CC(=O)Nc1cc(Cl)ccc1C	-2.13%
Clc1ccc(OCCN2CCCCC2)cc1Cl	active: 103%
CCOC(=O)c1ccc(N2C(=O)c3[nH]nc(-c4ccc(C)cc4)c3C2c2ccc(O)c(OCC)c2)cc1 (stereo not drawn)	4.19%
COc1cc2c(=O)c(C(=O)c3ccc(C)c(C)c3)cn(Cc3ccccc3F)c2cc1OC	3.3%
COc1ccc(F)cc1C(=O)C1CCCN(Cc2cccn2-c2cccnc2)C1 (stereo not drawn)	active: 74%
COCCNC(=O)c1ccc2c(=O)n(CCc3ccccc3)c(SCC(=O)CC(=O)OC)nc2c1	-12%
CC(=O)N1c2ccc(S(=O)(=O)N3CCC(C(=O)Nc4cc(C)cc(C)c4)CC3)cc2CC1C (stereo not drawn)	active: 70.6%
COc1cccc(-c2nc(S(=O)(=O)c3ccccc3)c(N3CCCCC3)o2)c1	-7.39%
CCC(C)NC(=O)CSc1nc2cc3c(cc2c(=O)n1CCCC(=O)NCCc1ccc(OC)c(OC)c1)OCO3 (stereo not drawn)	0.915%
Cc1cccc(OCCSc2nc3ccccc3n2CC(=O)N2CCOCC2)c1	5.24%
COc1ccccc1CNC(=O)c1ccc(CS(=O)(=O)c2c(Cl)cccc2Cl)o1	2.47%
COc1ccc(-n2nc([N+](=O)[O-])c(=NC3CCN(Cc4ccccc4)CC3)n2O)cc1	active: 71.2%
Cc1ccc(NC(=O)CCOc2ccccc2)cc1	-23%
COc1ccc(NC(=O)c2cccc(N3CCCS3(=O)=O)c2)cc1OC	10.7%
COc1ccccc1N1CCN(C(=O)Cn2c(=O)n3nc(-c4ccc(C)cc4)nc3c3ccccc32)CC1	-0.498%
CC(C)Cc1ccc(S(=O)(=O)N2CCC(c3ccncc3)CC2)cc1	-5.1%
O=C(Nc1ccccc1)/C(=C/c1ccccc1)NC(=O)c1ccco1	active: 30.1%
Cc1nc(N2CCCC2)ncc1C(=O)NCc1cccc(Cl)c1	3.97%

SMILES	inhibition
COC(=O)c1ccc(NC(=O)CCS(=O)(=O)c2ccc(Br)s2)cc1	16.1%
COC(=O)c1ccc(NC(=O)CC2C(=O)N(c3cccc(OC)c3)C(=O)N2Cc2ccco2)cc1 (stereo not drawn)	3.9%
CCc1ccc(NC(=O)CSc2nc3ccccc3nc2Cc2ccc(C)cc2)cc1	-4.57%
Cc1nnc(N2C(=O)c3oc4ccccc4c(=O)c3C2c2ccc(C(C)(C)C)cc2)s1 (stereo not drawn)	1.53%
COc1ccc(C)cc1NC(=O)CN1c2ccccc2S(=O)(=O)c2ccccc21	9.82%
COc1ccc(C(=O)CSc2nc(C)cc(C)c2C(=O)Nc2ccccc2C)cc1	0.557%
COc1ccc(Cl)cc1-n1nnc(-c2nc(-c3ccccc3)no2)c1C	-0.278%
COc1ccc(-c2nc3cc(C(C)C)ccc3o2)cc1NC(=O)c1ccccc1[N+](=O)[O-]	6.11%
Cn1c(SCC(=O)Nc2ccccc2)nnc1-c1ccccc1	-8.33%
Cc1ccc(CNc2nc(-c3ccco3)nn2S(C)(=O)=O)cc1	23.4%
CC1=Nc2ccc(Br)cc2C(c2ccccc2)N1CC(=O)NN (stereo not drawn)	active: 36.1%
COc1ccc2c(c1)c(=O)c(C(=O)c1ccc(C)c(C)c1)cn2CC(=O)Nc1ccc2c(c1)OCCO2	12.7%
CCOc1ccccc1CNC(=O)CCn1c(=O)c2cccn2c2ccc(F)cc21	-6.04%
Cc1ccc(Cn2c(CN3CCC(C(=O)NCc4ccccc4C)CC3)cc3ccccc32)cc1	-23.1%
COc1ccc(NC(=O)C2COc3ccccc3C2)cc1Cl (stereo not drawn)	-9.68%
O=C(NCc1ccc(Cl)cc1)c1ccc2c(Cl)c3c(nc2c1)CCCC3	14.6%
Cc1ccc(C)c(N2CCN(C(=O)CCC(=O)Nc3ccc4nc(N5CCCCC5)cc(C)c4c3)CC2)c1	2.28%
Clc1ccccc1OCCN1CCC(Cc2ccccc2)CC1	active: 63.3%
Cc1ccc(OCCSc2nnc(-c3cccs3)o2)cc1Cl	10.5%
CCOC(=O)c1cccc(NC(=O)CCCn2nc(C)c3c(C)n(-c4ccccc4)nc3c2=O)c1	-5.57%
CCOC(=O)c1c(C)n(-c2ccccc2)c2ccc(OC(=O)c3ccccc3NC(=O)C(C)C)cc12	5.67%
CC(=O)Nc1ccc(NC(=O)C2CCN(c3c(NC(C)=O)c(C)nn3-c3ccccc3)CC2)cc1	5.45%
COc1ccc(Cl)cc1NC(=O)Cn1ncc2c3ccccc3n(C)c2c1=O	-1.11%
Cc1nn(CC(=O)NCc2ccc(F)cc2)c2ccccc12	13.2%
Cc1ccc2[nH]c3c(=O)n(CC(=O)NCc4ccco4)ncc3c2c1	-0.989%

SMILES	inhibition
Cc1cc(N2CCN(c3cccc(C)c3C)CC2)n2cnnc2n1	-3.05%
CCOC(=O)c1cnn(-c2ccc(C(=O)Nc3ccc(OC(F)(F)F)cc3)cc2)c1N	9.3%
CC(=O)Nc1ccc(NC(=O)C2CCCN(S(=O)(=O)c3ccc4c(c3)CCCC(=O)N4)C2)cc1 (stereo not drawn)	-1.14%
S=C(Nc1ccccc1Cl)NC1CCN(Cc2ccccc2)CC1	active: 84.6%
COc1ccc(Br)cc1C(=O)Nc1cccc2ccc(C)nc12	5.87%
COc1cc(-c2nc(S(=O)(=O)c3ccc(Br)cc3)c(N3CCOCC3)o2)cc(OC)c1OC	-12.4%
CCCCCCCC/C=C\CCCCCCCC(=O)NCCc1ccc(O)c(O)c1	active: 56.6%
O=C(c1cccs1)N1CCN(Cc2ccccc2)CC1	active: 63.9%
O=C(c1ccccc1)c1ccc(OCC(O)CN2CCCC2)cc1 (stereo not drawn)	active: 71.8%
CCc1nc2nc(C)cc(Nc3cc(Cl)ccc3C)n2n1	12.1%
CCc1ccc(CNC(=O)c2ccc3c(Cl)c4c(nc3c2)CCCC4)cc1	-2.61%
Cc1ccc(N(CC(=O)NCCc2ccccc2C)S(=O)(=O)N(C)C)cc1	7.89%
COc1ccccc1CNC(=O)c1cccc(N2CCCS2(=O)=O)c1	-0.38%
CCOC(=O)c1ccc(NC(=O)C2CC(=O)NC(=Nc3ccc(C)c(C)c3)S2)cc1 (stereo not drawn)	7.55%
COc1ccccc1CNC(=O)Cn1c(=O)oc2cc(S(=O)(=O)N3CCCC3)ccc21	-3.32%
Cc1cccc(NC(=O)Nc2ccc(F)cc2)n1	-12.4%
Cc1cccc2c1-c1sc(C(=O)N3CCN(c4ccccc4)CC3)cc1CO2	-4.45%
COc1ccc(-c2noc(N3CCC(C(=O)N4CCN(c5ccccc5OC)CC4)CC3)n2)cc1	-15.6%
Cc1ccc2nc(NCc3ccccc3)c3nnnn3c2c1	11.9%
CCCCNS(=O)(=O)c1ccc2nc(-c3cccnc3)cc(C(=O)NCCCOC(C)C)c2c1	-22.6%
CCOc1cccc(Nc2nn(-c3ccc(OC(F)(F)F)cc3)nc2C(C)=O)c1	6.18%
COc1ccc(Nc2nc(-c3cccc(Cl)c3)c3c(n2)-c2ccccc2OC3)cc1	9.48%
CCOc1ccccc1CNC(=O)Cc1ccc(NC(=O)N2CCCCc3ccccc32)cc1	8.88%
CCOc1ccc(NC(=O)CSc2nc3ccsc3c(=O)n2C(C)CC)cc1 (stereo not drawn)	-15.1%
O=C(Nc1cccnc1)c1ccc2snnc2c1	active: 35.4%

SMILES	inhibition
CCOc1ccc(CCNC(=O)CCc2c(C)nc3c(c(C)nn3-c3ccc(C)c(C)c3)c2C)cc1	10.6%
COC(=O)c1cc2oc3ccccc3c2n1Cc1nc(-c2ccccc2Cl)oc1C	-7.5%
CC(C)Sc1nc2sc3c(c2c(=O)n1Cc1ccccc1)CCCC3	-0.504%
Cc1ccc(NC(=O)C2CCN(S(=O)(=O)c3c(C)noc3C)CC2)cc1	8.42%
CC1(C)CC(=O)c2cc(-c3nc(-c4ccccc4)cs3)c(=O)[nH]c2C1	-16.1%
Cc1nnc(C)n1-c1ccc(C(=O)Nc2cccc(Br)c2)cc1	-2.46%
COCCCNC(=O)NC(CCC(C)C)c1c(-n2cccc2)sc2c1CCN(C)C2 (stereo not drawn)	16.2%
Cc1c(Cl)cccc1NC(=O)CCCn1nc(C)c2sc3ccccc3c2c1=O	-1.62%
CCC1CCCCN1S(=O)(=O)c1ccc(NC(=O)c2cc(=O)c3c(C)cc(C)cc3o2)cc1 (stereo not drawn)	4.32%
COc1cccc(N2CCN(c3c4c(nc5nncn35)CCC4)CC2)c1	11.6%
Cc1cccc(Cn2cc3c(=O)n(CC(=O)Nc4c(C)cccc4C)nc-3c3cc(F)ccc32)c1	-3.45%
Cc1nn(-c2ccc(N3CCCCC3)nn2)c(C)c1CCC(=O)NCc1ccc(F)cc1	7.88%
CCc1ccccc1NC(=O)CN1C(=O)CCn2nc(-c3cccn3C)cc21	-15.1%
Cc1ccc(-c2c(CN3CCN(c4cc(C)ccc4C)CC3)csc2C)cc1	2.83%
CCN(CC)C(=O)CSc1nnc2ccc3ccccc3n12	-20.5%
CCCn1cc(S(=O)(=O)c2cccc(Cl)c2)c(=O)c2cc(F)c(N3CCOCC3)cc21	5.18%
O=S(=O)(Nc1ccc(-c2ccc(N3CCCCC3)nn2)cc1)c1ccc(OC(F)(F)F)cc1	-7.48%
C/C(=N\NC(=O)c1ccccc1F)c1ccc(C#N)cc1	active: 36.4%
COc1ccc(CNC(=O)c2cc3c(-c4ccc(Cl)cc4)nn(C)c3s2)cc1	-2.75%
COCCN1C(=O)c2oc3cc(C)cc(C)c3c(=O)c2C1c1cccc(O)c1 (stereo not drawn)	1.52%
COc1ccc(S(=O)(=O)N(CCc2ccccc2)CC(=O)NCc2ccccc2)cc1	4.64%
Cn1c(=O)n(C)c2cc(NS(=O)(=O)c3ccc(F)cc3)c(NCc3ccccc3)cc21	-6.06%
CCOC(=O)c1cccc(NC(=O)Cn2nc3c(cc2=O)CCCC3)c1	15.9%
